Results on 27 compounds are retold here after the antibiotic and cytotoxicity screens of Wong et al. (2023).

The other results are listed elsewhere or left out.

One assay relates to HSkMC. Description: cytotoxicity call (relative viability < 0.9). As to conditions: 10 µM.
The next assay relates to S. aureus RN4220. The assay can be described thus: growth inhibition call (relative growth <= 0.2). As to conditions: 50 µM.

For `Nc1ncnc2c1ncn2[C@@H]1O[C@H](CO)[C@@H](O)[C@H]1O`, in the assay with HSkMC, the cytotoxicity call was “inactive”. Moreover, the growth inhibition call in the assay with S. aureus RN4220 is “inactive”.

With `C[C@H](CO)N1C[C@H](C)[C@@H](CN(C)C(=O)Nc2ccc(C(F)(F)F)cc2)Oc2ncc(/C=C/c3ccccc3)cc2C1=O`, the cytotoxicity call in the assay on HSkMC was “inactive”. Besides, the growth inhibition call in the assay with S. aureus RN4220 is “inactive”.

As for `C[C@@H]1CN([C@H](C)CO)C(=O)c2cc(NS(=O)(=O)c3ccc(Cl)cc3)ccc2O[C@H]1CN(C)Cc1ccc(C(F)(F)F)cc1`, the cytotoxicity call with HSkMC was “inactive”. Also, in the assay on S. aureus RN4220, the growth inhibition call was “inactive”.

Regarding `C[C@@H]1CN([C@@H](C)CO)C(=O)Cc2cc(NS(=O)(=O)c3ccc(F)cc3)ccc2O[C@H]1CN(C)CC1CC1`, the cytotoxicity call in the assay with HSkMC was “inactive”. In addition, the growth inhibition call in the assay on S. aureus RN4220 is “inactive”.

In the case of `Cc1ccc(S(=O)(=O)N(C)C[C@H]2OCCCC[C@@H](C)Oc3ccc(NS(=O)(=O)c4ccc(F)cc4)cc3C(=O)N([C@H](C)CO)C[C@H]2C)cc1`, the cytotoxicity call in the assay on HSkMC is “inactive”. The growth inhibition call in the assay on S. aureus RN4220 was “inactive”.

As for `C[C@@H]1CN([C@@H](C)CO)C(=O)c2ccccc2-c2ccccc2CO[C@@H]1CN(C)S(=O)(=O)c1cn(C)cn1`, in the assay on HSkMC, the cytotoxicity call was “inactive”. Moreover, the growth inhibition call in the assay with S. aureus RN4220 was “inactive”.

On to `COc1ccc(S(=O)(=O)Nc2ccc3c(c2)C(=O)N([C@@H](C)CO)C[C@@H](C)[C@H](CN(C)C(=O)C2CCCCC2)OCCCC[C@H](C)O3)cc1`, for which the cytotoxicity call in the assay with HSkMC was “inactive”. In the assay on S. aureus RN4220, the growth inhibition call is “inactive”.

As for `COc1ccc(NC(=O)Nc2ccc3c(c2)C(=O)N([C@@H](C)CO)C[C@@H](C)[C@@H](CN(C)S(=O)(=O)c2ccc(OC)cc2)OCCCC[C@H](C)O3)cc1`, in the assay with HSkMC, the cytotoxicity call was “inactive”. Further, in the assay with S. aureus RN4220, the growth inhibition call is “inactive”.

`COc1ccc(NC(=O)Nc2cccc3c2O[C@H](CN(C)Cc2ccc(Oc4ccccc4)cc2)[C@H](C)CN([C@H](C)CO)C3=O)cc1`: the cytotoxicity call in the assay on HSkMC was “inactive”. The growth inhibition call with S. aureus RN4220 was “inactive”.

Take `CO[C@H]1CN(C)C(=O)c2ccc(NS(=O)(=O)c3cn(C)cn3)cc2OC[C@@H](C)N(Cc2cccc(F)c2)C[C@@H]1C`: the cytotoxicity call with HSkMC was “inactive”. Also, in the assay on S. aureus RN4220, the growth inhibition call is “inactive”.

As to `O=c1nc(NCc2cccnc2)cn[nH]1`, in the assay on HSkMC, the cytotoxicity call was “inactive”. In the assay with S. aureus RN4220, the growth inhibition call was “inactive”.

Regarding `C[C@@H]1CCCCO[C@H](CN(C)S(=O)(=O)c2ccccc2)[C@@H](C)CN([C@H](C)CO)C(=O)c2cc(NC(=O)c3ccccc3)ccc2O1`, in the assay with HSkMC, the cytotoxicity call was “inactive”. Further, the growth inhibition call in the assay on S. aureus RN4220 was “inactive”.

Take `O=C(N[C@H](c1ccc(F)cc1)c1ccc2ccccc2n1)C1CCN(Cc2ccc3ccccc3n2)CC1`: the cytotoxicity call with HSkMC was “inactive”. The growth inhibition call in the assay with S. aureus RN4220 was “inactive”.

For the compound `COCCOC(=O)N1C(=O)[C@@]2(c3cc(C#CC4=CCCCC4)ccc31)[C@H](c1ccc(OCCO)cc1)N1[C@H](c3ccccc3)[C@H](c3ccccc3)OC(=O)[C@H]1[C@@H]2C(=O)N1CCN(c2ncccn2)CC1`, in the assay with HSkMC, the cytotoxicity call is “inactive”. The growth inhibition call with S. aureus RN4220 was “inactive”.

`C[C@@H]1CCCCO[C@H](CN(C)C(=O)Nc2ccc(C(F)(F)F)cc2)[C@@H](C)CN([C@H](C)CO)C(=O)c2cc(NC(=O)CCC(F)(F)F)ccc2O1`: in the assay on HSkMC, the cytotoxicity call was “inactive”. Besides, the growth inhibition call with S. aureus RN4220 is “inactive”.

As to `C[C@H]1CN([C@@H](C)CO)C(=O)c2cccc(NS(=O)(=O)c3ccc(F)cc3)c2O[C@@H]1CN(C)C(=O)Nc1ccc(C(F)(F)F)cc1`, in the assay on HSkMC, the cytotoxicity call was “inactive”. Besides, the growth inhibition call in the assay with S. aureus RN4220 was “inactive”.

Regarding `C#Cc1ccc([C@@H]2C=C(C(=O)N3CCN(Cc4ccc5c(c4)OCO5)CC3)O[C@H](OCC)[C@H]2CCCO)cc1`, the cytotoxicity call in the assay on HSkMC is “inactive”. The growth inhibition call with S. aureus RN4220 is “inactive”.

With `COc1ccc(S(=O)(=O)N2C[C@H](O)COC[C@@H]3O[C@H](CC(=O)NCc4ccc(Cl)c(Cl)c4)CC[C@H]32)cc1`, in the assay with HSkMC, the cytotoxicity call is “inactive”. For the same compound, the growth inhibition call in the assay on S. aureus RN4220 is “inactive”.

Consider `C[C@@H]1CN([C@H](C)CO)C(=O)c2cc(NC(=O)Nc3ccccc3)ccc2O[C@@H](C)CCCCO[C@@H]1CN(C)Cc1ccc2c(c1)OCO2`, for which the cytotoxicity call with HSkMC is “inactive”. For the same compound, the growth inhibition call in the assay with S. aureus RN4220 was “inactive”.

As for `C=CC(C)(O)CCC1C(C)(O)CCC2C(C)(C)CCCC21C` (centres undefined), the cytotoxicity call in the assay with HSkMC is “inactive”. Moreover, in the assay on S. aureus RN4220, the growth inhibition call was “inactive”.

As to `COCC#Cc1cnc2c(c1)C(=O)N([C@@H](C)CO)C[C@H](C)[C@H](CN(C)C(C)=O)O2`, the cytotoxicity call in the assay on HSkMC is “inactive”. Moreover, the growth inhibition call with S. aureus RN4220 is “inactive”.

Regarding `CN(C)CCOC(c1ccc(Cl)cc1)c1ccccn1.O=C(O)C=CC(=O)O` (centres undefined), the cytotoxicity call in the assay on HSkMC was “inactive”. In addition, the growth inhibition call in the assay on S. aureus RN4220 was “inactive”.

Take `C[C@@H]1CCCCO[C@H](CN(C)C(=O)C2CCCCC2)[C@H](C)CN([C@@H](C)CO)C(=O)c2cc(NS(=O)(=O)c3cccs3)ccc2O1`: the cytotoxicity call in the assay on HSkMC was “inactive”. The growth inhibition call in the assay with S. aureus RN4220 was “inactive”.

As to `C[C@@H]1CN([C@H](C)CO)C(=O)c2cc(-c3cccc(C(=O)N(C)C)c3)cnc2O[C@H]1CN(C)S(=O)(=O)c1ccc(F)cc1`, the cytotoxicity call in the assay on HSkMC was “inactive”. Further, in the assay on S. aureus RN4220, the growth inhibition call is “inactive”.

With `C[C@@H]1CCCCO[C@H](CN(C)CC2CCCCC2)[C@H](C)CN([C@H](C)CO)C(=O)c2cc(NC(=O)Cc3ccccc3)ccc2O1`, the cytotoxicity call with HSkMC was “inactive”. For the same compound, the growth inhibition call in the assay on S. aureus RN4220 is “inactive”.

Turning to `Cc1noc(C)c1NC(=O)N(C)C[C@H]1OCCCC[C@H](C)Oc2ccc(NC(=O)CCC(F)(F)F)cc2C(=O)N([C@@H](C)CO)C[C@H]1C`, the cytotoxicity call in the assay on HSkMC (human skeletal muscle cells) was “inactive”. Also, the growth inhibition call in the assay with S. aureus RN4220 is “inactive”.

For `C[C@@H]1CN([C@H](C)CO)C(=O)c2cc(NC(=O)CCN3CCOCC3)ccc2O[C@H]1CN(C)C(=O)Nc1ccccc1`, the cytotoxicity call with HSkMC was “inactive”. In addition, the growth inhibition call with S. aureus RN4220 is “inactive”.
